From PMC6294051 come the findings set out here.

Positions count from the first letter of the chain named. No constants are given. Whether binding was seen depends on the method and setting. Some entries that bind do so weakly or less than the wild type. Tags and fused reporters may be left off the sequences shown.

Holding throughout (assay): two-hybrid
In assay [1] the target is T1, LexA-XA21JK (juxtamembrane and kinase domain of rice XA21), wildtype (rice) (UniProt Q1MX30).
T1 sequence: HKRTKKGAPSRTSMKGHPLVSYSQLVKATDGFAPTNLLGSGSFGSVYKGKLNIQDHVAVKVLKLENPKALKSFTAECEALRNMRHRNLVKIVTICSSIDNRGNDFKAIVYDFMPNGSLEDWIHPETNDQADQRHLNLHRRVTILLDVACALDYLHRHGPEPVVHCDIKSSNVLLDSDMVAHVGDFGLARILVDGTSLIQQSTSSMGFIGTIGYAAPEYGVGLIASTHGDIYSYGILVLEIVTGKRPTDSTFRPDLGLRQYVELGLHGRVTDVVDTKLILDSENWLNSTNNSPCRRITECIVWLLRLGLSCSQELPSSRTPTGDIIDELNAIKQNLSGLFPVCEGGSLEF

For another assay, the target named is T2, LexA-XA21JK^D842N (rice) (UniProt Q1MX30).
T2 sequence: T1 sequence with D166N

Another assay concerns the target T3, LexA-XA21JK^Y698D (rice) (UniProt Q1MX30).
T3 sequence: T1 sequence with Y22D

Another assay deals with T4, LexA-XA21JK^Y698F (rice) (UniProt Q1MX30).
T4 sequence: T1 sequence with Y22F

A further assay deals with T5, LexA-XA21JK^Y786D (rice) (UniProt Q1MX30).
T5 sequence: T1 sequence with Y110D

For another assay, the target named is T6, LexA-XA21JK^Y786F (rice) (UniProt Q1MX30).
T6 sequence: T1 sequence with Y110F

In another assay the target is T7, LexA-XA21JK^Y907D (rice) (UniProt Q1MX30).
T7 sequence: T1 sequence with Y231D

For a further assay, the target named is T8, LexA-XA21JK^Y907F (rice) (UniProt Q1MX30).
T8 sequence: T1 sequence with Y231F

The next assay deals with T9, LexA-XA21JK^Y909D (rice) (UniProt Q1MX30).
T9 sequence: T1 sequence with Y233D

In another assay the target is T10, LexA-XA21JK^Y909F (rice) (UniProt Q1MX30).
T10 sequence: T1 sequence with Y233F

B1: HA-XB3 (XA21 binding protein 3, an E3-ubiquitin ligase) (protein, UniProt Q65XV2 1-450)
chain: MGHGVSCARTGDEHDFFRAAQLGDLDALAALLAADPSLARRATLYDRLSVLHIAAANGRIEVLSMFLDRGAPPDAVNRHKQTPLMLAAMHGKIDCVLKLLQADANILMFDSVHARTCLHHAAYYGHVDCLQAILAAAQTTPVADSWGFARFVNVRDDHGATPLHLAARQGRPGCVQVLLENGAIVSALTGSYGFPGSTSLHLAARSGNLDCIRKLLAWGADRLQRDSAGRIPYSVALKRNHGACAALLNPTSAEPMVWPSPLKFISELEPEAKALLEAALMEANREREKKILNGTKYSLPSPSPGDDSADDDACSEVSDTELCCICFDQACTIEVQDCGHQMCAPCTLALCCHNKPNPTTLTPPSPACPFCRGSISRLVVAQTRSACDPDKPSSLQLTRKRSRRSHNLSEGSSSFKGLPSAMGSFSKLGRGSSRMADSDSSNLDKPEHDL
For B1, the binding result in assay [1] was “binds”; in the assay with LexA-XA21JK^D842N (rice) it was “binds”; in the assay with LexA-XA21JK^Y698D (rice), “no binding”; with LexA-XA21JK^Y698F (rice), “binds”; with LexA-XA21JK^Y786D (rice) it was “binds”; in the assay with LexA-XA21JK^Y786F (rice), “binds”. For the same molecule, the binding result with LexA-XA21JK^Y907D (rice) is “binds”; with LexA-XA21JK^Y907F (rice), “binds”; with LexA-XA21JK^Y909D (rice), “no binding”; with LexA-XA21JK^Y909F (rice) it was “binds”.
